Drawing on paper PMC9911399, “Two distinct binding modes provide the RNA-binding protein RbFox with extraordinary sequence specificity”, this text covers binding signal for 31 molecules.

Residue numbers refer to the chain shown, from its start. The list shows a part of the results.

Sequences and labels used below:
T1: RBFOX1 RRM (Homo sapiens, UniProt Q9NWB1 109-208)
T1 sequence: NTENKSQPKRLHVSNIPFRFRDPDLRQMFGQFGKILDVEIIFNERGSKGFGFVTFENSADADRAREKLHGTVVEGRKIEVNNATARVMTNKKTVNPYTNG

B1: UACAGAA (DNA:RNA)
RNA: GGGAGACCGGAAUUCAGAUUGUCCUACAGAAUUAAAUCCCGUCGUAGCCACCA
DNA 1: CAATCTGAATTCCGGTCTCCC
DNA 2: TGGTGGCTACGACGGGATT
B2: UAUAGAG (DNA:RNA)
RNA: B1 RNA with C27U, A31G
DNA 1: CAATCTGAATTCCGGTCTCCC
DNA 2: TGGTGGCTACGACGGGATT
B3: UGUGUAC (DNA:RNA)
RNA: B1 RNA with A26G, C27U, A28G, G29U, A31C
DNA 1: CAATCTGAATTCCGGTCTCCC
DNA 2: TGGTGGCTACGACGGGATT
B4: UUCGAAU (DNA:RNA)
RNA: B1 RNA with A26U, A28G, G29A, A31U
DNA 1: CAATCTGAATTCCGGTCTCCC
DNA 2: TGGTGGCTACGACGGGATT
B5: UUGUAAC (DNA:RNA)
RNA: B1 RNA with A26U, C27G, A28U, G29A, A31C
DNA 1: CAATCTGAATTCCGGTCTCCC
DNA 2: TGGTGGCTACGACGGGATT
B6: AGUGUAU (DNA:RNA)
RNA: B1 RNA with U25A, A26G, C27U, A28G, G29U, A31U
DNA 1: CAATCTGAATTCCGGTCTCCC
DNA 2: TGGTGGCTACGACGGGATT
B7: GCUCGCA (DNA:RNA)
RNA: B1 RNA with U25G, A26C, C27U, A28C, A30C
DNA 1: CAATCTGAATTCCGGTCTCCC
DNA 2: TGGTGGCTACGACGGGATT
B8: CAAGCCC (DNA:RNA)
RNA: B1 RNA with U25C, C27A, A28G, G29C, A30C, A31C
DNA 1: CAATCTGAATTCCGGTCTCCC
DNA 2: TGGTGGCTACGACGGGATT
B9: CCGUGGU (DNA:RNA)
RNA: B1 RNA with U25C, A26C, C27G, A28U, A30G, A31U
DNA 1: CAATCTGAATTCCGGTCTCCC
DNA 2: TGGTGGCTACGACGGGATT
B10: GACGAUC (DNA:RNA)
RNA: B1 RNA with U25G, A28G, G29A, A30U, A31C
DNA 1: CAATCTGAATTCCGGTCTCCC
DNA 2: TGGTGGCTACGACGGGATT
B11: AUACUAU (DNA:RNA)
RNA: B1 RNA with U25A, A26U, C27A, A28C, G29U, A31U
DNA 1: CAATCTGAATTCCGGTCTCCC
DNA 2: TGGTGGCTACGACGGGATT
B12: AUUAUUG (DNA:RNA)
RNA: B1 RNA with U25A, A26U, C27U, G29U, A30U, A31G
DNA 1: CAATCTGAATTCCGGTCTCCC
DNA 2: TGGTGGCTACGACGGGATT
B13: ACUCGGU (DNA:RNA)
RNA: B1 RNA with U25A, A26C, C27U, A28C, A30G, A31U
DNA 1: CAATCTGAATTCCGGTCTCCC
DNA 2: TGGTGGCTACGACGGGATT
B14: UCAUACA (DNA:RNA)
RNA: B1 RNA with A26C, C27A, A28U, G29A, A30C
DNA 1: CAATCTGAATTCCGGTCTCCC
DNA 2: TGGTGGCTACGACGGGATT
B15: AUUAUCU (DNA:RNA)
RNA: B1 RNA with U25A, A26U, C27U, G29U, A30C, A31U
DNA 1: CAATCTGAATTCCGGTCTCCC
DNA 2: TGGTGGCTACGACGGGATT
B16: AUUAGCG (DNA:RNA)
RNA: B1 RNA with U25A, A26U, C27U, A30C, A31G
DNA 1: CAATCTGAATTCCGGTCTCCC
DNA 2: TGGTGGCTACGACGGGATT
B17: AGAUAUA (DNA:RNA)
RNA: B1 RNA with U25A, A26G, C27A, A28U, G29A, A30U
DNA 1: CAATCTGAATTCCGGTCTCCC
DNA 2: TGGTGGCTACGACGGGATT
B18: CUAUCUC (DNA:RNA)
RNA: GGGAGACCGGAAUUCAGAUUGUCCCUAUCUCUUAAAUCCCGUCGUAGCCACCA
DNA 1: CAATCTGAATTCCGGTCTCCC
DNA 2: TGGTGGCTACGACGGGATT
B19: GGAGCUU (DNA:RNA)
RNA: B18 RNA with C25G, U26G, U28G, C31U
DNA 1: CAATCTGAATTCCGGTCTCCC
DNA 2: TGGTGGCTACGACGGGATT
B20: UCACCAA (DNA:RNA)
RNA: B1 RNA with A26C, C27A, A28C, G29C
DNA 1: CAATCTGAATTCCGGTCTCCC
DNA 2: TGGTGGCTACGACGGGATT
B21: GAAAAAG (DNA:RNA)
RNA: B1 RNA with U25G, C27A, G29A, A31G
DNA 1: CAATCTGAATTCCGGTCTCCC
DNA 2: TGGTGGCTACGACGGGATT
B22: AUGAUGG (DNA:RNA)
RNA: B18 RNA with C25A, A27G, U28A, C29U, U30G, C31G
DNA 1: CAATCTGAATTCCGGTCTCCC
DNA 2: TGGTGGCTACGACGGGATT
B23: CCGCAUA (DNA:RNA)
RNA: B18 RNA with U26C, A27G, U28C, C29A, C31A
DNA 1: CAATCTGAATTCCGGTCTCCC
DNA 2: TGGTGGCTACGACGGGATT
B24: CACCGCA (DNA:RNA)
RNA: B1 RNA with U25C, A28C, A30C
DNA 1: CAATCTGAATTCCGGTCTCCC
DNA 2: TGGTGGCTACGACGGGATT
B25: UAAUGUA (DNA:RNA)
RNA: B1 RNA with C27A, A28U, A30U
DNA 1: CAATCTGAATTCCGGTCTCCC
DNA 2: TGGTGGCTACGACGGGATT
B26: GCAAUUA (DNA:RNA)
RNA: B18 RNA with C25G, U26C, U28A, C29U, C31A
DNA 1: CAATCTGAATTCCGGTCTCCC
DNA 2: TGGTGGCTACGACGGGATT
B27: CCGGUGU (DNA:RNA)
RNA: B18 RNA with U26C, A27G, U28G, C29U, U30G, C31U
DNA 1: CAATCTGAATTCCGGTCTCCC
DNA 2: TGGTGGCTACGACGGGATT
B28: UUAGACA (DNA:RNA)
RNA: B18 RNA with C25U, U28G, C29A, U30C, C31A
DNA 1: CAATCTGAATTCCGGTCTCCC
DNA 2: TGGTGGCTACGACGGGATT
B29: AUAGAGA (DNA:RNA)
RNA: B18 RNA with C25A, U28G, C29A, U30G, C31A
DNA 1: CAATCTGAATTCCGGTCTCCC
DNA 2: TGGTGGCTACGACGGGATT
B30: CCUGAAU (DNA:RNA)
RNA: B18 RNA with U26C, A27U, U28G, C29A, U30A, C31U
DNA 1: CAATCTGAATTCCGGTCTCCC
DNA 2: TGGTGGCTACGACGGGATT
B31: AAUGCUU (DNA:RNA)
RNA: B18 RNA with C25A, U26A, A27U, U28G, C31U
DNA 1: CAATCTGAATTCCGGTCTCCC
DNA 2: TGGTGGCTACGACGGGATT

The target in this experiment is T1, RBFOX1 RRM. Briefly: EMSA; HiTS-Eq, 1 nM pool, 10 min; buffer printed only for the single-RNA assays: 10 mM Tris pH 7.5, 150 mM NaCl, 3.4 mM EDTA, 0.001% NP-40, 30 C. The conditions noted are these: tags: His6 N-terminal (pET28a); label: 5' 32P. Summed up:
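Purified wild-type or mutant RbFox RRM at increasing concentrations was equilibrated with 1 nM of 5′-radiolabelled RNA carrying 7 randomized nucleotides for 10 min in 50 µL. Unbound RNA was separated by 8% native PAGE and sequenced. Relative association constants came from read-count changes of each RNA species compared with the control reaction, normalised to the cognate motif.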
In the case of B1, the binding signal was 0.00686 KA relative to UGCAUGU.
The result for B2 reads 0.0123 KA relative to UGCAUGU; that for B3, 0.0133 KA relative to UGCAUGU.
The result for B4 reads 0.0146 KA relative to UGCAUGU.
The same measure for B5: 0.012 KA relative to UGCAUGU; for B6: 0.00491 KA relative to UGCAUGU; for B7: 0.0158 KA relative to UGCAUGU.
B8: the binding signal is 0.00379 KA relative to UGCAUGU.
The result for B9 reads 0.0142 KA relative to UGCAUGU; that for B10, 0.0155 KA relative to UGCAUGU.
The result for B11 reads 0.000717 KA relative to UGCAUGU; that for B12, 0.00949 KA relative to UGCAUGU; that for B13, 0.0113 KA relative to UGCAUGU.
With B14, the binding signal was 0.00023 KA relative to UGCAUGU.
The result for B15 reads 0.00435 KA relative to UGCAUGU.
The result for B16 reads 0.00971 KA relative to UGCAUGU.
For B17, the binding signal was 0.00218 KA relative to UGCAUGU.
The same measure for B18: 0.0057 KA relative to UGCAUGU; for B19: 0.0232 KA relative to UGCAUGU; for B20: 0.00156 KA relative to UGCAUGU.
For B21, the binding signal is 0.00328 KA relative to UGCAUGU.
B22: the binding signal was 0.0132 KA relative to UGCAUGU.
In the case of B23, the binding signal is 0.00403 KA relative to UGCAUGU.
As for B24, the binding signal was 0.00871 KA relative to UGCAUGU.
Consider B25, for which the binding signal is 0.0139 KA relative to UGCAUGU.
In the case of B26, the binding signal is 0.00326 KA relative to UGCAUGU.
The result for B27 reads 0.0133 KA relative to UGCAUGU; that for B28, 0.00332 KA relative to UGCAUGU.
The same measure for B29: 0.00472 KA relative to UGCAUGU; for B30: 0.00741 KA relative to UGCAUGU.
The result for B31 reads 0.00981 KA relative to UGCAUGU.
